B1: Caulobacter ParB omega fusion; a variant is named by its letters at X, in order, B8GW30 (parent)
chain: MESVVVGEPGMSEGRRGLGRGLSALLGEVDAAPAQAPGEQLGGSREAPIEILQRNPDQPRRTFREEDLEDLSNSIREKGVLQPILVRPSPDTAGEYQIVAGERAWRAAQRAGLKTVPIMVRELDDLAVLEIGIIENVQRADLNVLEEALSYKVLMEKFERTQENIAQTIGKSXSHVANXMRLLXLPDEVQSYLVSGELTAXHARAIAAAADPVALAKQIIEGGLSVRETEALARKAPNLSAGKSKGGRPPRVKDTDTQALESDLSSVLGLDVSIDHRGSTGTLTITYATLEQLDDLCNRLTRGI

In all, about 81,000 sequences were measured (“one-hybrid fitness for binding NBS DNA”: median about -0.1, highest 2% from about 0.36 on). This is one part of the list.

Variants of B1 are the subject of this test. The experiment in a line: one-hybrid fitness for binding NBS DNA (the Noc-binding site; scaled: cognate 1, non-cognate 0); higher = stronger binding. To be noted: with NBS DNA site. The essentials:
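On M9-minus-histidine containing 0.1 mM IPTG and 5 mM 3-AT, E. coli USO cells with a HIS3 reporter, site 19 bp from the promoter, grew 48 hours at 37°C to select Caulobacter ParB libraries randomised at four specificity codons. Plasmids from before and after were Illumina-sequenced, with three replicate libraries pooled and variants under 10 reads left out. Fitness is the log change in variant-to-wild-type read ratio, rescaled against cognate and non-cognate.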
For LTTG, the “one-hybrid fitness for binding NBS DNA” value is at most 0.2.
Then NAER, with at most 0.2.
Then QVNI, with at most 0.2; and AKHC, with at most 0.2; and GTTG, with at most 0.2.
As for SFLV, the “one-hybrid fitness for binding NBS DNA” value is at most 0.2.
On to TIKD, for which the “one-hybrid fitness for binding NBS DNA” value is at most 0.2.
With QNWS, the “one-hybrid fitness for binding NBS DNA” value is at most 0.2.
Then SSFS, with at most 0.2; and SFKG, with at most 0.2; and CTHM, with at most 0.2.
As for DYRN, the “one-hybrid fitness for binding NBS DNA” value was at most 0.2.
Regarding TWEM, the “one-hybrid fitness for binding NBS DNA” value is at most 0.2.
For the variant NRPY, the “one-hybrid fitness for binding NBS DNA” value was at most 0.2.
For FRNK, the “one-hybrid fitness for binding NBS DNA” value is at most 0.2.
Consider RNHV, for which the “one-hybrid fitness for binding NBS DNA” value was at most 0.2.
Then MNKS, with at most 0.2; and QRRY, with 0.718.
Then NTHC, with at most 0.2; and ENYE, with at most 0.2.
For the variant CIWS, the “one-hybrid fitness for binding NBS DNA” value is at most 0.2.
For MSPK, the “one-hybrid fitness for binding NBS DNA” value is at most 0.2.
In the case of VVPT, the “one-hybrid fitness for binding NBS DNA” value was at most 0.2.
Then TGIG, with at most 0.2.
With VHLY, the “one-hybrid fitness for binding NBS DNA” value was at most 0.2.
On to CVTR, for which the “one-hybrid fitness for binding NBS DNA” value is at most 0.2.
For MHLG, the “one-hybrid fitness for binding NBS DNA” value was at most 0.2.
For the variant RHQD, the “one-hybrid fitness for binding NBS DNA” value was at most 0.2.
Then MRFS, with at most 0.2.
With RQRR, the “one-hybrid fitness for binding NBS DNA” value came to 0.717.
Consider QYGY, for which the “one-hybrid fitness for binding NBS DNA” value is at most 0.2.
For the variant EITT, the “one-hybrid fitness for binding NBS DNA” value is at most 0.2.
Take FTQL: the “one-hybrid fitness for binding NBS DNA” value is at most 0.2.
Then FRQR, with at most 0.2.
Then ENVR, with at most 0.2.
Then VPEL, with at most 0.2; and KDPS, with at most 0.2.
As for YRES, the “one-hybrid fitness for binding NBS DNA” value is at most 0.2.
As to HAIF, the “one-hybrid fitness for binding NBS DNA” value is at most 0.2.
Then TRVY, with at most 0.2; and ATAN, with at most 0.2.
As for NHNE, the “one-hybrid fitness for binding NBS DNA” value was at most 0.2.
Then NERR, with at most 0.2; and MARY, with at most 0.2.
Then WMTM, with at most 0.2.
As for SRRW, the “one-hybrid fitness for binding NBS DNA” value is at most 0.2.
Then RGSH, with at most 0.2.
Then DAMD, with at most 0.2; and TFYE, with at most 0.2; and PYKQ, with at most 0.2.
GMNL: the “one-hybrid fitness for binding NBS DNA” value is at most 0.2.
Then PHTP, with at most 0.2.
Then RNDL, with at most 0.2; and TTCC, with at most 0.2; and SAPK, with at most 0.2.
Then SYFM, with at most 0.2; and FPVL, with at most 0.2; and NHHK, with at most 0.2.
On to YFYM, for which the “one-hybrid fitness for binding NBS DNA” value was at most 0.2.
Take QNLE: the “one-hybrid fitness for binding NBS DNA” value is at most 0.2.
Then MPPW, with at most 0.2; and EGLM, with at most 0.2; and RGRN, with at most 0.2.
MTHV: the “one-hybrid fitness for binding NBS DNA” value was at most 0.2.
With SVSG, the “one-hybrid fitness for binding NBS DNA” value is at most 0.2.
Regarding GHST, the “one-hybrid fitness for binding NBS DNA” value was at most 0.2.
Then PVEY, with at most 0.2.
With KAEG, the “one-hybrid fitness for binding NBS DNA” value is at most 0.2.
IWTI: the “one-hybrid fitness for binding NBS DNA” value was at most 0.2.
Then IYTN, with at most 0.2; and NQIS, with at most 0.2.
Take SSHC: the “one-hybrid fitness for binding NBS DNA” value is at most 0.2.
On to TMQE, for which the “one-hybrid fitness for binding NBS DNA” value was at most 0.2.
Then NKTL, with at most 0.2; and TYWS, with at most 0.2.
In the case of DRPM, the “one-hybrid fitness for binding NBS DNA” value was at most 0.2.
Then WQLY, with at most 0.2.
With TEKV, the “one-hybrid fitness for binding NBS DNA” value was at most 0.2.
Consider YDLI, for which the “one-hybrid fitness for binding NBS DNA” value was at most 0.2.
Turning to RNSK, the “one-hybrid fitness for binding NBS DNA” value is at most 0.2.
Consider GCKE, for which the “one-hybrid fitness for binding NBS DNA” value is at most 0.2.
Then GYMT, with at most 0.2; and HANS, with at most 0.2; and PPYR, with at most 0.2.
Then LHCL, with at most 0.2; and HNVL, with at most 0.2.
For QQPQ, the “one-hybrid fitness for binding NBS DNA” value is at most 0.2.
Then FGRH, with at most 0.2.
VQLW: the “one-hybrid fitness for binding NBS DNA” value was at most 0.2.
Then PVLC, with at most 0.2; and VAAL, with at most 0.2; and RWYH, with at most 0.2.
With LTAV, the “one-hybrid fitness for binding NBS DNA” value was at most 0.2.
Turning to MVMS, the “one-hybrid fitness for binding NBS DNA” value is at most 0.2.
Turning to VETR, the “one-hybrid fitness for binding NBS DNA” value was at most 0.2.
EAEL: the “one-hybrid fitness for binding NBS DNA” value was at most 0.2.
Regarding CWRG, the “one-hybrid fitness for binding NBS DNA” value is at most 0.2.
